# Data reported in the supplement of paper PMC7826260.
# Some of the results follow. Each Rep nickase domain was tested in vitro on the same pool of single strands at 3 µM enzyme and 37 °C for 1 h; the strands have 90 letters, of which the middle is given. The score is log2 (uncut reads / reads without enzyme); the lower, the more was cut; hits are not called. Counts are relative to all reads; values above 0 arise when much of the pool is cut.
# Tests used:
# Assay in all cases: uncleaved DNA left, log2 of reads against the no-enzyme library (log2 ratio); higher = less cleavage (more negative = more Rep cleavage of the k-mer); sequences stand for … in CTCGTCCG…ACCGGAGA
# [1] = tested on: T1, Rep nickase domain of Muscovy duck circovirus
# T1 sequence (residues 1-111, tag not shown): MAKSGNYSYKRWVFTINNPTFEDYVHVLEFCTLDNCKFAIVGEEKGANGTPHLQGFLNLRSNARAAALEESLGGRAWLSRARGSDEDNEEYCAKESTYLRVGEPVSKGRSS
# Procedure: (§1)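 A pool of 90-nt single-stranded DNAs with seven random bases just before the constant AC of the nick site (name = the seven bases) was cut by 3 µM recombinant His6-SUMO-tagged Rep nickase domain (300 nM DNA, 50 mM HEPES pH 8.0, 50 mM NaCl, 1 mM MnCl2, 1 h, 37 °C, three replicates). Uncut DNA was amplified and sequenced.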
# [2] = tested on: T2, Rep nickase domain of banana bunchy top virus
# T2 sequence (residues 1-94, tag not shown): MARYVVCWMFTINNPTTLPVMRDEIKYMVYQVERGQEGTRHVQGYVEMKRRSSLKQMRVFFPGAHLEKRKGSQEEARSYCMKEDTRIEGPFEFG
# Procedure: as §1
# [3] = tested on: T3, Rep nickase domain of cabbage leaf curl virus
# T3 sequence (residues 1-116, tag not shown): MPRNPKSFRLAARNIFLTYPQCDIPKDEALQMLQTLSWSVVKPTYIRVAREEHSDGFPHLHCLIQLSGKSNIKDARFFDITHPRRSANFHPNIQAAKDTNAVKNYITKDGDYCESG
# Procedure: as §1
# [4] = tested on: T4, Rep nickase domain of chickpea chlorotic dwarf virus
# T4 sequence (residues 1-124, tag not shown): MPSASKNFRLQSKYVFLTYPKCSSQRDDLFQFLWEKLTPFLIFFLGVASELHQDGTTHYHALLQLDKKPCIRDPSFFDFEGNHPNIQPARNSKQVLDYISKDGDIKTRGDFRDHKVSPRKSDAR
# Procedure: as §1
# [5] = tested on: T5, Rep nickase domain of faba bean necrotic yellows virus
# T5 sequence (residues 1-98, tag not shown): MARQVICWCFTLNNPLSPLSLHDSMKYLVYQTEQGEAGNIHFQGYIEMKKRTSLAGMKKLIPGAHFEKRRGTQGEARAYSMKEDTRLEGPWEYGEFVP
# Procedure: as §1
# [6] = tested on: T6, Rep nickase domain of maize striate mosaic virus
# T6 sequence (residues 1-117, tag not shown): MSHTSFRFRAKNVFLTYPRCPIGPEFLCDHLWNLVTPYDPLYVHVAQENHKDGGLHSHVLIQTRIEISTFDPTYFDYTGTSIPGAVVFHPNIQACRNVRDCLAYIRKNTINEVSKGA
# Procedure: as §1
# [7] = tested on: T7, Rep nickase domain of porcine circovirus 2
# T7 sequence (residues 2-116, tag not shown): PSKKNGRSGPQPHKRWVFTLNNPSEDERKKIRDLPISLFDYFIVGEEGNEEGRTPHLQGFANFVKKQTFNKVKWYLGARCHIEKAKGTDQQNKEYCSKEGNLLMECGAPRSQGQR
# Procedure: as §1
# [8] = tested on: T8, Rep nickase domain of tomato yellow leaf curl virus
# T8 sequence (residues 1-136, tag not shown): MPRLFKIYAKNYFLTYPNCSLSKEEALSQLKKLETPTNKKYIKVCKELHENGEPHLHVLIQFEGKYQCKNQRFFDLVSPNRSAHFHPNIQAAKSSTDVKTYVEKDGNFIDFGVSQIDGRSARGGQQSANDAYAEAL
# Procedure: as §1
# [9] = tested on: T9, Rep nickase domain of wheat dwarf virus
# T9 sequence (residues 1-137, tag not shown): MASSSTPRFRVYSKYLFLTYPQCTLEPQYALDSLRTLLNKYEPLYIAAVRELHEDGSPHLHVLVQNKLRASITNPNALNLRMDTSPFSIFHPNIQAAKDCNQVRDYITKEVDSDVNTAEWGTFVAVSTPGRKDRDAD
# Procedure: as §1
Sequence,uncleaved DNA left (log2) [1],uncleaved DNA left (log2) [2],uncleaved DNA left (log2) [3],uncleaved DNA left (log2) [4],uncleaved DNA left (log2) [5],uncleaved DNA left (log2) [6],uncleaved DNA left (log2) [7],uncleaved DNA left (log2) [8],uncleaved DNA left (log2) [9]
ATCCTTC,0.0406,0.0178,-0.0129,-0.265,0.223,-0.723,0.0837,-0.0291,-0.0911
TCTGCGC,-0.102,-0.195,-0.948,0.297,-0.00305,-0.9,-0.0876,-0.0549,-0.303
CGGCGCC,-0.00956,-0.08,-0.18,-0.032,-0.0567,-0.13,0.0371,-0.00279,-0.0556
GCTGCCG,0.00656,0.0181,-0.5,-0.391,0.0131,-0.816,-0.0304,-0.135,-0.0883
AACGAAC,-0.0572,-0.289,-0.304,-0.146,-0.16,-0.68,-0.137,-0.132,-0.0112
TCATCAA,-0.0247,0.103,0.228,0.351,-0.12,-0.106,0.0217,0.0905,0.121
AGCATCC,0.00136,0.113,0.113,0.28,-0.0478,-0.0273,-0.193,0.0609,0.139
TGCGGTC,0.00555,-0.000349,-0.265,-0.375,0.0347,-0.537,-0.0189,0.0461,-0.0468
CGCATCA,0.16,0.16,0.257,-0.242,0.237,-0.0364,-0.0578,0.182,0.231
GTCATTA,0.00654,0.149,0.342,0.902,0.0466,1.73,0.0852,0.121,0.047
TTGGCGG,-0.0134,-0.0953,0.203,0.712,0.0188,0.825,0.133,-0.053,-0.07
GAAACAC,0.044,0.024,0.304,0.693,0.0092,0.877,0.172,0.0905,0.207
ATCAGCC,-0.0796,-0.0473,-0.282,-0.462,-0.0473,-1.12,0.00898,-0.0813,-0.0671
TCCAGAA,0.0576,-0.0598,0.191,0.0123,-0.0977,-0.435,-0.0161,-0.199,-0.00742
CTTTAGT,-2.57,-0.134,-0.0925,-0.814,0.0894,-0.964,-3.27,0.0578,-0.0808
TTCCATC,-0.0862,0.0692,0.257,-0.0124,-0.0273,-0.517,-0.096,0.00163,0.0661
TTCTTGA,0.0427,0.00776,0.244,0.392,-0.12,0.679,0.0245,-0.0261,-0.0374
GGTTGGG,0.0697,-0.0653,-0.532,-0.301,0.0385,-0.327,0.135,0.135,-0.121
GTGAAAA,-0.0895,0.0669,0.187,1.04,-0.0368,1.6,0.0898,0.0287,0.11
TGCTTTA,-0.0873,-0.0415,-0.0421,-0.816,-0.213,-0.295,-0.383,-0.0517,-0.24
GGCCCCG,0.0639,0.0199,0.032,0.134,0.0496,-0.108,-0.00379,0.0786,0.123
TCGCAGG,0.0286,0.126,0.217,0.77,-0.061,0.958,-0.0546,-0.074,-0.0538
GCCTAAC,0.058,-0.0585,-0.208,-0.407,0.0245,0.0591,-0.0484,-0.00485,0.00709
CATGTTC,-0.195,-0.106,-0.0465,-1.56,-0.0687,-0.886,-0.092,-0.0439,-0.0816
GAGTGTA,-0.0901,-0.282,0.202,-0.0474,-0.268,0.941,-2.34,0.0239,0.0147
TCCACAA,-0.0323,0.034,0.168,-0.179,-0.0296,-0.269,0.0614,-0.00252,0.0849
AGAGTGC,0.0953,0.0597,-0.407,-0.224,0.119,-0.87,0.194,0.174,0.00126
AGAGTAC,0.164,0.0678,0.213,-0.129,0.0578,0.0979,0.0673,0.0572,0.164
CTCTGAG,-0.018,-0.195,-0.719,-0.158,0.0866,-0.861,0.248,0.0674,0.0543
AACACCA,-0.0349,0.00231,-0.142,-2.44,-0.061,-0.269,-0.0992,-0.0401,-0.0445
